The other results are listed elsewhere or left out. Single values of this set are uncertain. Values with irradiation are relative to irradiated vehicle.
What was measured:
A549-Dual [1] = experiment: NF-kB reporter (SEAP) activity, viability-corrected, relative to vehicle (fold change vs vehicle); higher = more activation of STING-IRF / NF-kB immune response reporter
A549-Dual [2] = experiment: ISRE reporter (Lucia luciferase) activity, viability-corrected, relative to vehicle (fold change vs vehicle); higher = more activation of STING-IRF / NF-kB immune response reporter
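For NF-kB reporter (SEAP) activity, viability-corrected, relative to vehicle in this document: viability correction based on the alamar blue assay, with concentrations leaving 10% survival or less dropped.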

| Structure (SMILES) | NF-kB reporter (A549-Dual [1]; 0.1 µM, irradiation: 8 Gy/4 fr) | NF-kB reporter (A549-Dual [1]; 0.1 µM, irradiation: none) | NF-kB reporter (A549-Dual [1]; 0.3 µM, irradiation: 8 Gy/4 fr) | NF-kB reporter (A549-Dual [1]; 0.3 µM, irradiation: none) | NF-kB reporter (A549-Dual [1]; 1 µM, irradiation: 8 Gy/4 fr) | NF-kB reporter (A549-Dual [1]; 1 µM, irradiation: none) | NF-kB reporter (A549-Dual [1]; 3 µM, irradiation: 8 Gy/4 fr) | NF-kB reporter (A549-Dual [1]; 3 µM, irradiation: none) | NF-kB reporter (A549-Dual [1]; 10 µM, irradiation: 8 Gy/4 fr) | NF-kB reporter (A549-Dual [1]; 10 µM, irradiation: none) | ISRE reporter (A549-Dual [2]; 0.1 µM, irradiation: 8 Gy/4 fr) | ISRE reporter (A549-Dual [2]; 0.1 µM, irradiation: none) | ISRE reporter (A549-Dual [2]; 0.3 µM, irradiation: 8 Gy/4 fr) | ISRE reporter (A549-Dual [2]; 0.3 µM, irradiation: none) | ISRE reporter (A549-Dual [2]; 1 µM, irradiation: 8 Gy/4 fr) | ISRE reporter (A549-Dual [2]; 1 µM, irradiation: none) | ISRE reporter (A549-Dual [2]; 3 µM, irradiation: 8 Gy/4 fr) | ISRE reporter (A549-Dual [2]; 3 µM, irradiation: none) | ISRE reporter (A549-Dual [2]; 10 µM, irradiation: 8 Gy/4 fr) | ISRE reporter (A549-Dual [2]; 10 µM, irradiation: none) |
| --- | --- | --- | --- | --- | --- | --- | --- | --- | --- | --- | --- | --- | --- | --- | --- | --- | --- | --- | --- | --- |
| CC(C(=O)O)c1ccc2c(c1)CC(=O)c1ccccc1S2 (stereo not given) [Zaltoprofen] | 0.821 | 1.1 | 0.804 | 1.59 | 1.18 | 0.939 | 1.24 | 0.985 | 0.826 | 0.799 | 0.928 | 0.968 | 0.791 | 1.04 | 0.832 | 0.93 | 0.884 | 1.09 | 0.849 | 0.778 |
| COC1=C(OC)C(=O)C(CCCCCCCCCCO)=C(C)C1=O [Idebenone] | 0.955 | 1.34 | 0.932 | 1.41 | 1.56 | 1.12 | 1.63 | 1.17 | 1.09 | 1.11 | 1.08 | 1.02 | 0.87 | 1.04 | 1.04 | 1.04 | 1.05 | 1.07 | 1.13 | 1.27 |
| CNC(=NC#N)NCCSCc1nc[nH]c1C [Cimetidine] | 1.02 | 2.02 | 1.26 | 2.03 | 1.72 | 1.6 | 2.12 | 1.48 | 1.74 | 1.06 | 1.15 | 1.49 | 1.12 | 1.31 | 1.18 | 1.37 | 1.3 | 1.58 | 1.22 | 0.853 |
| CCC1(O)CC2CN(CCc3c([nH]c4ccccc34)C(C(=O)OC)(c3cc4c(cc3OC)N(C=O)C3C(O)(C(=O)OC)C(OC(C)=O)C5(CC)C=CCN6CCC43C65)C2)C1.O=S(=O)(O)O (stereo not given) [Vincristine sulfate] | 1.14 | 1.75 | 0.984 | 2.03 | 0.841 | 1.6 | 0.755 | 1.5 | 0.731 | 1.63 | 0.488 | 1.21 | 0.139 | 0.683 | 0.0998 | 0.746 | 0.0704 | 0.673 | 0.0666 | 0.497 |
| CC(=O)OC1CCC2(C)C(CCC3(C)C2C(=O)C=C2C4C(C)C(C)CCC4(C)CCC23C)C1(C)C(=O)O (stereo not given) | 1.03 | 1.02 | 1.03 | 0.862 | 1.01 | 0.846 | 1.15 | 0.853 | 2.65 | 1.32 | 1.08 | 0.901 | 1.08 | 0.689 | 0.722 | 0.665 | 0.792 | 0.86 | 0.066 | 0.35 |
| CS(=O)(=O)O.Cc1ccc(NC(=O)c2ccc(CN3CCN(C)CC3)cc2)cc1Nc1nccc(-c2cccnc2)n1 [Imatinib Mesylate (STI571)] | 0.863 | 0.948 | 0.902 | 1.12 | 0.832 | 1.14 | 0.815 | 0.774 | 0.961 | 0.815 | 0.885 | 0.89 | 0.909 | 1.02 | 0.803 | 1.1 | 0.858 | 1.02 | 0.874 | 1.24 |
| CC(C)(C)c1ccc(C(=O)CCCN2CCC(OC(c3ccccc3)c3ccccc3)CC2)cc1 [Ebastine] | 1.32 | 1.34 | 1.36 | 1.13 | 1.33 | 1.07 | 1.49 | 1.22 | 1.5 | 1.35 | 0.939 | 0.959 | 1.14 | 0.817 | 1.05 | 0.808 | 1.06 | 0.896 | 1.13 | 1.12 |
| CCCCOC(=O)c1ccccc1Nc1cccc(C(F)(F)F)c1 [Ufenamate] | 1.08 | 1.28 | 0.967 | 1.15 | 1.24 | 0.962 | 1.47 | 0.949 | 0.881 | 1 | 1.12 | 1.23 | 1.01 | 0.934 | 0.982 | 0.899 | 0.833 | 0.851 | 0.84 | 0.927 |
| Cc1c(N)c(=O)n(-c2ccccc2)n1C [4-Aminoantipyrine] | 0.993 | 1.05 | 0.868 | 0.884 | 1.27 | 0.978 | 1.1 | 0.892 | 1.04 | 0.994 | 0.959 | 0.819 | 0.934 | 0.715 | 0.728 | 0.672 | 0.778 | 0.798 | 0.793 | 0.738 |
| CC/C(=C(\c1ccccc1)c1ccc(OCCN(C)C)cc1)c1ccccc1.O=C(O)CC(O)(CC(=O)O)C(=O)O [Tamoxifen] | 0.892 | 0.878 | 0.93 | 0.965 | 0.864 | 0.891 | 0.95 | 0.806 | 0.921 | 0.954 | 0.951 | 0.799 | 1.1 | 0.951 | 0.916 | 0.736 | 1.01 | 0.819 | 1 | 1.14 |
| O=C(O)Cc1ccccc1Nc1c(Cl)cccc1Cl.OCCN1CCCC1 [Diclofenac Epolamine] | 0.966 | 0.79 | 0.758 | 0.644 | 0.948 | 0.697 | 0.994 | 0.79 | 0.575 | 0.824 | 0.888 | 0.658 | 0.749 | 0.561 | 0.628 | 0.592 | 0.64 | 0.782 | 0.491 | 0.559 |
| NC(=O)c1ncn(C2OC(CO)C(O)C2O)c1O (stereo not given) [Mizoribine] | 1.28 | 1.23 | 1.3 | 1.1 | 1.29 | 0.922 | 1.06 | 1.02 | 0.794 | 0.906 | 1.18 | 1.36 | 1.21 | 1.04 | 1.19 | 0.994 | 1.14 | 0.997 | 0.683 | 0.82 |
| CC[N+](CC)(CC)CCOc1cccc(OCC[N+](CC)(CC)CC)c1OCC[N+](CC)(CC)CC.[I-].[I-].[I-] [Gallamine Triethiodide] | 0.698 | 0.805 | 0.819 | 0.819 | 0.837 | 0.787 | 0.754 | 0.845 | 0.724 | 0.837 | 0.805 | 0.822 | 0.73 | 0.661 | 0.577 | 0.773 | 0.647 | 0.926 | 0.643 | 0.802 |
| CCC(=O)OCC(=O)C1(OC(=O)CC)C(C)CC2C3CCC4=CC(=O)C=CC4(C)C3(F)C(O)CC21C (stereo not given) [Betamethasone Dipropionate] | 0.36 | 0.654 | 0.409 | 0.692 | 0.339 | 0.623 | 0.379 | 0.576 | 0.394 | 0.539 | 0.0695 | 0.198 | 0.0602 | 0.221 | 0.0556 | 0.241 | 0.0441 | 0.187 | 0.0549 | 0.208 |
| O=C(O)c1ccccc1OP(=O)(O)O [Fosfosal] | 1.04 | 1.01 | 0.941 | 0.804 | 1.03 | 0.83 | 1.13 | 0.811 | 0.847 | 1.01 | 1.04 | 0.867 | 0.991 | 0.727 | 0.718 | 0.583 | 0.713 | 0.834 | 0.795 | 0.844 |
| Cc1ccc(Cl)c(Nc2ccccc2C(=O)[O][Na])c1Cl [Meclofenamate Sodium] | 1.07 | 1.22 | 1.34 | 1.17 | 1.23 | 1.17 | 1.27 | 1.14 | 1.08 | 0.918 | 1.18 | 1.22 | 1.14 | 1 | 1.04 | 1.02 | 1 | 1.08 | 1.1 | 0.903 |
| O=C(O)c1cc(N=Nc2ccc(S(=O)(=O)Nc3ccccn3)cc2)ccc1O [Sulfasalazine] | 0.831 | 0.998 | 0.814 | 1.13 | 1.21 | 0.904 | 1.08 | 0.883 | 0.818 | 0.807 | 0.859 | 0.771 | 0.685 | 0.726 | 0.686 | 0.793 | 0.718 | 0.95 | 0.712 | 0.619 |
| C=CCC1/C=C(\C)CC(C)CC(OC)C2OC(O)(C(=O)C(=O)N3CCCCC3C(=O)OC(/C(C)=C/C3CCC(O)C(OC)C3)C(C)C(O)CC1=O)C(C)CC2OC (stereo not given) [Tacrolimus (FK506)] | 1.25 | 1.28 | 1.04 | 1.53 | 1.14 | 2.02 | 1.26 | 1.48 | 1.39 | 1.48 | 1.1 | 1.29 | 1.1 | 1.31 | 1.24 | 1.59 | 1.33 | 1.32 | 1.21 | 2.24 |
| CCOC(=O)c1ccc(C#Cc2ccc3c(c2)C(C)(C)CCS3)nc1 [Tazarotene] | 0.922 | 0.816 | 0.792 | 0.906 | 1.01 | 0.761 | 0.75 | 0.725 | 0.706 | 0.995 | 1 | 1.09 | 0.884 | 1.02 | 0.892 | 1.23 | 0.892 | 1.18 | 0.978 | 1.22 |
| COc1c2ccoc2cc2oc(=O)ccc12 [Bergapten] | 1.26 | 1.32 | 1.11 | 0.99 | 1.36 | 1.1 | 1.24 | 1.03 | 1.09 | 1.26 | 1.26 | 0.933 | 1.03 | 0.968 | 0.89 | 0.829 | 0.846 | 0.968 | 0.899 | 0.791 |
| CC(=O)NC(C=O)C(O)C(O)C(O)CO (stereo not given) [N-Acetylglucosamine] | 1.2 | 1.16 | 1.18 | 1.28 | 1.28 | 1.06 | 1.62 | 1.05 | 1.01 | 1.29 | 1.16 | 1.1 | 1.07 | 1.15 | 1.18 | 1.07 | 1.23 | 1.06 | 1.06 | 0.865 |
| O=C([O-])c1cc(=O)c2c(OCC(O)COc3cccc4oc(C(=O)[O-])cc(=O)c34)cccc2o1.[Na+].[Na+] [Disodium Cromoglycate] | 1.34 | 1.23 | 1.34 | 1.24 | 0.921 | 1.05 | 1.3 | 1.07 | 1.24 | 1.14 | 1.22 | 1.61 | 1.24 | 1.4 | 1.42 | 1.06 | 1.32 | 1.25 | 1.22 | 1.02 |
| COc1ccc(S(=O)(=O)N(C(C)=O)c2ccccc2/C=C/c2cc[n+]([O-])cc2)cc1 | 1.1 | 1.71 | 1.24 | 1.97 | 0.905 | 1.71 | 0.852 | 1.7 | 0.919 | 1.58 | 0.916 | 2.81 | 0.685 | 2.33 | 0.207 | 1.07 | 0.0815 | 0.601 | 0.0917 | 0.51 |
